Data reported in the supplement of paper PMC8728848.
This is one part of the list.

Assays:
Experiment in all cases: glycan array binding signal (z-score within array); higher = stronger binding
Details in all cases: glycan notation: IUPAC condensed, linker removed
[1] = target: Gal(b1-4)GlcNAc(b1-3)Gal(b1-4)GlcNAc(b1-3)Gal(b1-4)GlcNAc(b1-3)Gal(b1-4)GlcNAc(b1-2)Man(a1-3)[Gal(b1-4)GlcNAc(b1-3)Gal(b1-4)GlcNAc(b1-3)Gal(b1-4)GlcNAc(b1-3)Gal(b1-4)GlcNAc(b1-2)Man(a1-6)]Man(b1-4)GlcNAc(b1-4)GlcNAc
Method in brief: (§1)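 Glycan array data were curated from 3228 arrays in the Consortium for Functional Glycomics database and kept only where the protein sequence was available. Glycan names were converted to IUPAC-condensed notation, and columns mapping to the same glycan were averaged. The binding signal is a within-array Z-score, averaged across arrays of the same protein sequence at different concentrations or buffers and across linkers. Negative Z-scores can be read as non-binding.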

[2] = target: Gal(b1-4)GlcNAc(b1-3)Gal(b1-4)GlcNAc(b1-3)Gal(b1-4)GlcNAc(b1-3)Gal(b1-4)GlcNAc(b1-2)Man(a1-3)[Gal(b1-4)GlcNAc(b1-3)Gal(b1-4)GlcNAc(b1-3)Gal(b1-4)GlcNAc(b1-3)Gal(b1-4)GlcNAc(b1-2)Man(a1-6)]Man(b1-4)GlcNAc(b1-4)[Fuc(a1-6)]GlcNAc
Method in brief: as §1

[3] = target: Gal(b1-4)GlcNAc(b1-3)Gal(b1-4)GlcNAc(b1-3)Gal(b1-4)GlcNAc(b1-3)Gal(b1-4)GlcNAc(b1-2)[Gal(b1-4)GlcNAc(b1-3)Gal(b1-4)GlcNAc(b1-3)Gal(b1-4)GlcNAc(b1-3)Gal(b1-4)GlcNAc(b1-6)]Man(a1-6)[Gal(b1-4)GlcNAc(b1-3)Gal(b1-4)GlcNAc(b1-3)Gal(b1-4)GlcNAc(b1-3)Gal(b1-4)GlcNAc(b1-2)Man(a1-3)]Man(b1-4)GlcNAc(b1-4)[Fuc(a1-6)]GlcNAc
Method in brief: as §1

[4] = target: Gal(b1-4)GlcNAc(b1-3)Gal(b1-4)GlcNAc(b1-3)Gal(b1-4)GlcNAc(b1-3)Gal(b1-4)GlcNAc(b1-3)Gal(b1-4)GlcNAc(b1-2)Man(a1-3)[Gal(b1-4)GlcNAc(b1-3)Gal(b1-4)GlcNAc(b1-3)Gal(b1-4)GlcNAc(b1-3)Gal(b1-4)GlcNAc(b1-3)Gal(b1-4)GlcNAc(b1-2)Man(a1-6)]Man(b1-4)GlcNAc(b1-4)GlcNAc
Method in brief: as §1

[5] = target: Gal(b1-4)GlcNAc(b1-3)Gal(b1-4)GlcNAc(b1-3)Gal(b1-4)GlcNAc(b1-3)Gal(b1-4)GlcNAc(b1-3)Gal(b1-4)GlcNAc(b1-2)Man(a1-3)[Gal(b1-4)GlcNAc(b1-3)Gal(b1-4)GlcNAc(b1-3)Gal(b1-4)GlcNAc(b1-3)Gal(b1-4)GlcNAc(b1-3)Gal(b1-4)GlcNAc(b1-2)Man(a1-6)]Man(b1-4)GlcNAc(b1-4)[Fuc(a1-6)]GlcNAc
Method in brief: as §1

[6] = target: Gal(b1-4)GlcNAc(b1-3)Gal(b1-4)GlcNAc(b1-3)Gal(b1-4)GlcNAc(b1-3)Gal(b1-4)GlcNAc(b1-3)Gal(b1-4)GlcNAc(b1-2)[Gal(b1-4)GlcNAc(b1-3)Gal(b1-4)GlcNAc(b1-3)Gal(b1-4)GlcNAc(b1-3)Gal(b1-4)GlcNAc(b1-3)Gal(b1-4)GlcNAc(b1-6)]Man(a1-6)[Gal(b1-4)GlcNAc(b1-3)Gal(b1-4)GlcNAc(b1-3)Gal(b1-4)GlcNAc(b1-3)Gal(b1-4)GlcNAc(b1-3)Gal(b1-4)GlcNAc(b1-2)Man(a1-3)]Man(b1-4)GlcNAc(b1-4)[Fuc(a1-6)]GlcNAc
Method in brief: as §1

[7] = target: Gal(b1-4)GlcNAc(b1-3)Gal(b1-4)GlcNAc(b1-3)Gal(b1-4)GlcNAc(b1-3)Gal(b1-4)GlcNAc(b1-3)Gal(b1-4)GlcNAc(b1-3)Gal(b1-4)GlcNAc(b1-2)Man(a1-3)[Gal(b1-4)GlcNAc(b1-3)Gal(b1-4)GlcNAc(b1-3)Gal(b1-4)GlcNAc(b1-3)Gal(b1-4)GlcNAc(b1-3)Gal(b1-4)GlcNAc(b1-3)Gal(b1-4)GlcNAc(b1-2)Man(a1-6)]Man(b1-4)GlcNAc(b1-4)GlcNAc
Method in brief: as §1

[8] = target: Gal(b1-4)GlcNAc(b1-3)Gal(b1-4)GlcNAc(b1-3)GalNAc
Method in brief: as §1

[9] = target: Gal(b1-4)GlcNAc(b1-3)Gal(b1-4)GlcNAc(b1-3)[Gal(b1-4)GlcNAc(b1-3)Gal(b1-4)GlcNAc(b1-6)]GalNAc
Method in brief: as §1

[10] = target: Gal(b1-4)GlcNAc(b1-3)Gal(b1-4)GlcNAc(b1-6)[Gal(b1-3)]GalNAc
Method in brief: as §1

[11] = target: Gal(b1-4)GlcNAc(b1-3)Gal(b1-4)[Fuc(a1-3)]GlcNAc(b1-3)Gal(b1-4)[Fuc(a1-3)]GlcNAc
Method in brief: as §1

[12] = target: Gal(b1-4)GlcNAc(b1-3)GalNAc
Method in brief: as §1

[13] = target: Gal(b1-4)GlcNAc(b1-3)[Fuc(a1-3)GlcNAc(b1-6)]Gal(b1-4)Glc
Method in brief: as §1

[14] = target: Gal(b1-4)GlcNAc(b1-3)[Gal(b1-4)GlcNAc(b1-6)]Gal(b1-4)GlcNAc
Method in brief: as §1

[15] = target: Gal(b1-4)GlcNAc(b1-3)[GlcNAc(b1-6)]Gal(b1-4)GlcNAc
Method in brief: as §1

[16] = target: Gal(b1-4)GlcNAc(b1-6)Gal(b1-4)GlcNAc
Method in brief: as §1

[17] = target: Gal(b1-4)GlcNAc(b1-6)GalNAc
Method in brief: as §1

[18] = target: Gal(b1-4)GlcNAc(b1-6)[Gal(b1-3)]GalNAc
Method in brief: as §1

[19] = target: Gal(b1-4)GlcNAc(b1-6)[Gal(b1-4)GlcNAc(b1-3)]GalNAc
Method in brief: as §1

Gal(b1-4)GlcNAc6P = target: Gal(b1-4)GlcNAc6P
Method in brief: as §1

Gal(b1-6)Gal = target: Gal(b1-6)Gal
Method in brief: as §1

Gal3S(b1-3)GalNAc = target: Gal3S(b1-3)GalNAc
Method in brief: as §1

Gal3S(b1-3)GlcNAc = target: Gal3S(b1-3)GlcNAc
Method in brief: as §1

B1: CFEM-PPl (Pichia pastoris), F2QPV1 (protein)
chain: AVATPPACLLACAAEVVKESSDCDALNNIQCICENEGSAIHACLESTCPDGLSSTALQSFEDVCESVGTEANLDE
- glycan array binding signal (z-score) [1]: 0.111
- glycan array binding signal (z-score) [2]: 0.054
- glycan array binding signal (z-score) [3]: 0.208
- glycan array binding signal (z-score) [4]: 0.068
- glycan array binding signal (z-score) [5]: -0.06
- glycan array binding signal (z-score) [6]: 0.169
- glycan array binding signal (z-score) [7]: 0.228
- glycan array binding signal (z-score) [8]: -0.058
- glycan array binding signal (z-score) [9]: 0.105
- glycan array binding signal (z-score) [10]: 1.03
- glycan array binding signal (z-score) [11]: -0.205
- glycan array binding signal (z-score) [12]: -0.054
- glycan array binding signal (z-score) [13]: -0.296
- glycan array binding signal (z-score) [14]: 0.238
- glycan array binding signal (z-score) [15]: -0.226
- glycan array binding signal (z-score) [16]: 0.761
- glycan array binding signal (z-score) [17]: 0.009
- glycan array binding signal (z-score) [18]: 1.36
- glycan array binding signal (z-score) [19]: 0.459
- glycan array binding signal (z-score) (Gal(b1-4)GlcNAc6P): -0.187
- glycan array binding signal (z-score) (Gal(b1-6)Gal): 0.626
- glycan array binding signal (z-score) (Gal3S(b1-3)GalNAc): -0.378
- glycan array binding signal (z-score) (Gal3S(b1-3)GlcNAc): -0.178
